Values belong to the molecule of their own block, whether it stands above or below them.
How the values were obtained:
[1] = test system: Pseudomonas aeruginosa PA173 (PA170 ΔmexX); assay: Minimum Inhibitory Concentration (MIC) assay, CLSI broth dilution; design: key: A = lower than or equal to lowest MIC among three control compounds; B = greater than lowest MIC among three control compounds, but lower than highest MIC among three control compounds; C = greater than MIC of all three control compounds; conditions: compared to Sancycline, Minocycline and Tigecycline
Method: (§1) Briefly, frozen bacterial strains were thawed and subcultured onto Mueller Hinton Broth (MHB) or other appropriate media (Streptococcus requires blood and Haemophilus requires hemin and NAD). Following incubation overnight, the strains were subcultured onto Mueller Hinton Agar and again incubated overnight. […] Isolated colonies were selected to prepare a starting inoculum equivalent to a 0.5 McFarland standard. The starting inoculum was diluted 1:125 (this is the working inoculum) using MHB for further use. […] .
(§2) The assays were run as follows. Fifty μL of MHB was added to wells 2-12 of a 96-well plate. One hundred μL of appropriately diluted antibiotics was added to well 1. Fifty μL of antibiotics was removed from well 1 and added to well 2 and the contents of well 2 mixed by pipetting up and down five times. Fifty μL of the mixture in well 2 was removed and added to well 3 and mixed as above. Serial dilutions were continued in the same manner through well 12. Fifty μL was removed from well 12 so that all contained 50 μL. Fifty μL of the working inoculum was then added to all test wells. A growth control well was prepared by adding 50 μL of working inoculum and 50 μL of MHB to an empty well. The plates were then incubated at 37° C. overnight, removed from the incubator and each well was read on a plate reading mirror. The lowest concentration (MIC) of test compound that inhibited the growth of the bacteria was recorded.
(§3) The following bacterial strains, listed below, were examined in minimum inhibitory concentration (MIC) assays.

[2] = test system: Klebsiella pneumoniae KP457 (2009 ESBL+, CTX-M, OXA); assay: as above; design: key: A = lower than or equal to lowest MIC among three control compounds; B = greater than lowest MIC among three control compounds, but lower than highest MIC among three control compounds; C = greater than MIC of all three control compounds; conditions: Table 7; class vs MICs of sancycline, minocycline, tigecycline
Method: as §1, §2, §3

Structure (SMILES): CC[C@H](C)N1Cc2c(O)c3c(c(C(F)(F)F)c2C1)C[C@H]1C[C@H]2[C@H](N(C)C)C(O)=C(C(N)=O)C(=O)[C@@]2(O)C(O)=C1C3=O [Compound 113]
MIC PA173 [1]: B

Structure (SMILES): CN(C)[C@@H]1C(O)=C(C(N)=O)C(=O)[C@@]2(O)C(O)=C3C(=O)c4c(O)c5c(c(F)c4C[C@H]3C[C@@H]12)CN1CCC[C@H]1C(=O)N5 [Compound 412]
MIC PA173 [1]: B

Structure (SMILES): CN(C)[C@@H]1C(O)=C(C(N)=O)C(=O)[C@@]2(O)C(O)=C3C(=O)c4c(O)c5c(c(F)c4C[C@H]3C[C@@H]12)CN(C1CC1)C5 [Compound 114]
MIC PA173 [1]: B

Structure (SMILES): CCC(C)N1CCc2c(O)c3c(c(F)c2C1)C[C@H]1C[C@H]2[C@H](N(C)C)C(O)=C(C(N)=O)C(=O)[C@@]2(O)C(O)=C1C3=O (stereo partly shown) [Compound 301]
MIC PA173 [1]: B

Structure (SMILES): CC(C)C[C@@H]1CNc2c(O)c3c(c(F)c2CN1)C[C@H]1C[C@H]2[C@H](N(C)C)C(O)=C(C(N)=O)C(=O)[C@@]2(O)C(O)=C1C3=O [Compound 408]
MIC PA173 [1]: B

Structure (SMILES): CC(C)CN1CCc2c(O)c3c(c(F)c2C1)C[C@H]1C[C@H]2[C@H](N(C)C)C(O)=C(C(N)=O)C(=O)[C@@]2(O)C(O)=C1C3=O [Compound 306]
MIC PA173 [1]: B

Structure (SMILES): CN(C)c1c2c(c(O)c3c1C[C@H]1C[C@H]4[C@H](N(C)C)C(O)=C(C(N)=O)C(=O)[C@@]4(O)C(O)=C1C3=O)CN(C(C)(C)C)C2 [Compound 115]
MIC PA173 [1]: B

Structure (SMILES): CC[C@@H](C)N1Cc2c(O)c3c(c(C(F)(F)F)c2C1)C[C@H]1C[C@H]2[C@H](N(C)C)C(O)=C(C(N)=O)C(=O)[C@@]2(O)C(O)=C1C3=O [Compound 128]
MIC PA173 [1]: B

Structure (SMILES): CCC(C)(C)N1Cc2c(O)c3c(c(OC)c2C1)C[C@H]1C[C@H]2[C@H](N(C)C)C(O)=C(C(N)=O)C(=O)[C@@]2(O)C(O)=C1C3=O [Compound 119]
MIC PA173 [1]: B

Structure (SMILES): CC[C@H](C)N1Cc2c(O)c3c(c(OC)c2C1)C[C@H]1C[C@H]2[C@H](N(C)C)C(O)=C(C(N)=O)C(=O)[C@@]2(O)C(O)=C1C3=O [Compound 148]
MIC PA173 [1]: B

Structure (SMILES): CN(C)[C@@H]1C(O)=C(C(N)=O)C(=O)[C@@]2(O)C(O)=C3C(=O)c4c(O)c5c(c(F)c4C[C@H]3C[C@@H]12)CN(C(C)(C)C)CC5 [Compound 308]
MIC PA173 [1]: B

Structure (SMILES): CN(C)[C@@H]1C(O)=C(C(N)=O)C(=O)[C@@]2(O)C(O)=C3C(=O)c4c(O)c5c(c(F)c4C[C@H]3C[C@@H]12)CN(C)[C@@H](Cc1ccccc1)C(=O)N5 [Compound 424]
MIC PA173 [1]: B

Structure (SMILES): CC[C@@H](C)N1CCc2c(O)c3c(c(F)c2C1)C[C@H]1C[C@H]2[C@H](N(C)C)C(O)=C(C(N)=O)C(=O)[C@@]2(O)C(O)=C1C3=O [Compound 302]
MIC PA173 [1]: B

Structure (SMILES): CN(C)[C@@H]1C(O)=C(C(N)=O)C(=O)[C@@]2(O)C(O)=C3C(=O)c4c(O)c5c(c(C(F)(F)F)c4C[C@H]3C[C@@H]12)CN(C1CC1)C5 [Compound 116]
MIC PA173 [1]: B

MIC KP457 [2]: C
Structure (SMILES): CN(C)[C@@H]1C(O)=C(C(N)=O)C(=O)[C@@]2(O)C(O)=C3C(=O)c4c(O)c5c(c(F)c4C[C@H]3C[C@@H]12)CN1CCCC[C@H]1C(=O)N5 [Compound 418]

Structure (SMILES): CCCN1Cc2c(F)c3c(c(O)c2NC[C@H]1CC(C)C)C(=O)C1=C(O)[C@]2(O)C(=O)C(C(N)=O)=C(O)[C@@H](N(C)C)[C@@H]2C[C@@H]1C3 [Compound 427]
MIC PA173 [1]: B

Structure (SMILES): CCN1CCc2c(O)c3c(c(F)c2C1)C[C@H]1C[C@H]2[C@H](N(C)C)C(O)=C(C(N)=O)C(=O)[C@@]2(O)C(O)=C1C3=O [Compound 307]
MIC PA173 [1]: B

MIC KP457 [2]: C
Structure (SMILES): CN(C)[C@@H]1C(O)=C(C(N)=O)C(=O)[C@@]2(O)C(O)=C3C(=O)c4c(O)c5c(c(F)c4C[C@H]3C[C@@H]12)CN1C[C@@H](O)C[C@H]1C(=O)N5 [Compound 417]

Structure (SMILES): CCCN1CCc2c(O)c3c(c(F)c2C1)C[C@H]1C[C@H]2[C@H](N(C)C)C(O)=C(C(N)=O)C(=O)[C@@]2(O)C(O)=C1C3=O [Compound 304]
MIC PA173 [1]: B

Structure (SMILES): CN(C)[C@@H]1C(O)=C(C(N)=O)C(=O)[C@@]2(O)C(O)=C3C(=O)c4c(O)c5c(c(F)c4C[C@H]3C[C@@H]12)CN(C(C)(C)CF)C5 [Compound 122]
MIC PA173 [1]: B

Structure (SMILES): CC(C)N1Cc2c(O)c3c(c(C(F)(F)F)c2C1)C[C@H]1C[C@H]2[C@H](N(C)C)C(O)=C(C(N)=O)C(=O)[C@@]2(O)C(O)=C1C3=O [Compound 126]
MIC PA173 [1]: B

Structure (SMILES): CCCN1Cc2c(O)c3c(c(OC)c2C1)C[C@H]1C[C@H]2[C@H](N(C)C)C(O)=C(C(N)=O)C(=O)[C@@]2(O)C(O)=C1C3=O [Compound 138]
MIC PA173 [1]: B

Structure (SMILES): CCCN1Cc2c(O)c3c(c(C(F)(F)F)c2C1)C[C@H]1C[C@H]2[C@H](N(C)C)C(O)=C(C(N)=O)C(=O)[C@@]2(O)C(O)=C1C3=O [Compound 141]
MIC PA173 [1]: B

Structure (SMILES): CC(C)C[C@@H]1CNc2c(O)c3c(c(F)c2CN1C)C[C@H]1C[C@H]2[C@H](N(C)C)C(O)=C(C(N)=O)C(=O)[C@@]2(O)C(O)=C1C3=O [Compound 429]
MIC PA173 [1]: B

Structure (SMILES): CC(C)N1CCc2c(O)c3c(c(F)c2C1)C[C@H]1C[C@H]2[C@H](N(C)C)C(O)=C(C(N)=O)C(=O)[C@@]2(O)C(O)=C1C3=O [Compound 300]
MIC PA173 [1]: B

Structure (SMILES): CN(C)[C@@H]1C(O)=C(C(N)=O)C(=O)[C@@]2(O)C(O)=C3C(=O)c4c(O)c5c(c(F)c4C[C@H]3C[C@@H]12)CN(C(C)(C)C)CC(=O)N5 [Compound 421]
MIC PA173 [1]: B

Structure (SMILES): CN(C)[C@@H]1C(O)=C(C(N)=O)C(=O)[C@@]2(O)C(O)=C3C(=O)c4c(O)c5c(c(F)c4C[C@H]3C[C@@H]12)CN(C)[C@@H](CO)C(=O)N5 [Compound 423]
MIC PA173 [1]: B

Structure (SMILES): CC[C@H](C)N1CCc2c(O)c3c(c(F)c2C1)C[C@H]1C[C@H]2[C@H](N(C)C)C(O)=C(C(N)=O)C(=O)[C@@]2(O)C(O)=C1C3=O [Compound 305]
MIC PA173 [1]: B

Structure (SMILES): C[C@@H]1C(=O)Nc2c(O)c3c(c(F)c2CN1C)C[C@H]1C[C@H]2[C@H](N(C)C)C(O)=C(C(N)=O)C(=O)[C@@]2(O)C(O)=C1C3=O [Compound 406]
MIC PA173 [1]: B

Structure (SMILES): CC[C@@H](C)N1Cc2c(O)c3c(c(OC)c2C1)C[C@H]1C[C@H]2[C@H](N(C)C)C(O)=C(C(N)=O)C(=O)[C@@]2(O)C(O)=C1C3=O [Compound 145]
MIC PA173 [1]: B

Structure (SMILES): CN(C)[C@@H]1C(O)=C(C(N)=O)C(=O)[C@@]2(O)C(O)=C3C(=O)c4c(O)c5c(c(F)c4C[C@H]3C[C@@H]12)CN(C1CCC1)C5 [Compound 132]
MIC PA173 [1]: B

Structure (SMILES): CN(C)[C@@H]1C(O)=C(C(N)=O)C(=O)[C@@]2(O)C(O)=C3C(=O)c4c(O)c5c(c(C(F)(F)F)c4C[C@H]3C[C@@H]12)CN(C(C)(C)C)C5 [Compound 112]
MIC PA173 [1]: B

Structure (SMILES): CN(C)[C@@H]1C(O)=C(C(N)=O)C(=O)[C@@]2(O)C(O)=C3C(=O)c4c(O)c5c(c(F)c4C[C@H]3C[C@@H]12)CN1CCC[C@@H]1C(=O)N5 [Compound 405]
MIC PA173 [1]: B

Structure (SMILES): CN(C)[C@@H]1C(O)=C(C(N)=O)C(=O)[C@@]2(O)C(O)=C3C(=O)c4c(O)c5c(c(F)c4C[C@H]3C[C@@H]12)CN(CC(C)(C)C)CC5 [Compound 303]
MIC PA173 [1]: B

— patent publication US20170107179A1 (Tetraphase Pharmaceuticals, Inc., priority 2010, published 2017)
